Experimental data from article PMC2702275, “TIPT2 and geminin interact with basal transcription factors to synergize in transcriptional regulation”.
Results are given in words; binding and its absence hold for the method and conditions named. Binding seen in cells or lysates may run through a third protein. Some results given as binding are weak or reduced against the parent protein; the word gives no strength. Where a sequence is shown, tags or fusion partners need not be part of it.

Chains of the proteins cited; added tags and fusions are not shown.
UniProt Q8K214: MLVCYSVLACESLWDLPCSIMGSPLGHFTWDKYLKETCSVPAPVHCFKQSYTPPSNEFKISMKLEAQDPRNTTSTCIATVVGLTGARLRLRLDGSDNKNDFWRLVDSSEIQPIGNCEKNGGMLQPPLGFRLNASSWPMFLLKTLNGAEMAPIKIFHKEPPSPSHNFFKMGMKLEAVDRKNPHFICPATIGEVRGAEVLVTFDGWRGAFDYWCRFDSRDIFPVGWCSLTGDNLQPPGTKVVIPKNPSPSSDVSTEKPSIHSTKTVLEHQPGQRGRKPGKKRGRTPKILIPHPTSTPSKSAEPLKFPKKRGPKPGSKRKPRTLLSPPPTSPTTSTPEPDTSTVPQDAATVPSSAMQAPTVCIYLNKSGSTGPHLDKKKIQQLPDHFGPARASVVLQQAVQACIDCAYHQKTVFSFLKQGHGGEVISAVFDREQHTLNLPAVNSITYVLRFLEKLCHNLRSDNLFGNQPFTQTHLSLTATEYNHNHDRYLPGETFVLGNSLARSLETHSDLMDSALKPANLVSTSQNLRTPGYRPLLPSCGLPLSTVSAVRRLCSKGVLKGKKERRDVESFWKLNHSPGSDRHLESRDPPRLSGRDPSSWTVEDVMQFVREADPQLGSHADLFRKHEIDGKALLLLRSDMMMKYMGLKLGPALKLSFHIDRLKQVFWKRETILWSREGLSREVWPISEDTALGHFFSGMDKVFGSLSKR
UniProt Q9CQJ4: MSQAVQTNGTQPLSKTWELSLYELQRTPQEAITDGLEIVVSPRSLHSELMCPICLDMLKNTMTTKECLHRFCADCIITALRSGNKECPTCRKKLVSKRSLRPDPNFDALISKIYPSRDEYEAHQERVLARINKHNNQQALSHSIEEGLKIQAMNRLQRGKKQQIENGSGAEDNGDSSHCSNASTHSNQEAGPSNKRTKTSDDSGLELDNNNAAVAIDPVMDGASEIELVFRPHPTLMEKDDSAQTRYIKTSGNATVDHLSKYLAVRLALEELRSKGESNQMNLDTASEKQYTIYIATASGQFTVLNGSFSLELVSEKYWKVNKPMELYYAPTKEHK
UniProt Q00403: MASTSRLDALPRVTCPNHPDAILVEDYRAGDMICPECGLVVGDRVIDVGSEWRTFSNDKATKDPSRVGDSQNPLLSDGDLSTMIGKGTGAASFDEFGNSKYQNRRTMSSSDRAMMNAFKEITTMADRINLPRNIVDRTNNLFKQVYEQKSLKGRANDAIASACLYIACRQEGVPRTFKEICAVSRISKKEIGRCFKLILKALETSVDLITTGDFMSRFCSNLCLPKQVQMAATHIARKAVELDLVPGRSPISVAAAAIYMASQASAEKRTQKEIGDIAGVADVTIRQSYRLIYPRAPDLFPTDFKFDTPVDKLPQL

T1: GST-geminin (UniProt O88513)
T1 sequence: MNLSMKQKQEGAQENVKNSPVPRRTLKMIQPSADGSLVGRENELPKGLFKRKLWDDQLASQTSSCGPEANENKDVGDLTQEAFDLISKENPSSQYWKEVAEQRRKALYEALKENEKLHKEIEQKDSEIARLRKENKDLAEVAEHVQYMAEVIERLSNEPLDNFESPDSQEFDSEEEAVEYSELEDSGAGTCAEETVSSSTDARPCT

T2: GST-TIPT2 (TATA-binding protein-like factor-interacting protein, isoform 2) (mouse) (UniProt Q6P926)
T2 sequence: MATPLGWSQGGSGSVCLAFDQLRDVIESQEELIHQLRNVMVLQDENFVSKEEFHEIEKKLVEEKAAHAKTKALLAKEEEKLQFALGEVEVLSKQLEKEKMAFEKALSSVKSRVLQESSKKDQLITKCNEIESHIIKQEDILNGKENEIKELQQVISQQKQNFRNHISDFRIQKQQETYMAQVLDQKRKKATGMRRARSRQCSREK

T3: HA-TIPT2 (mouse) (UniProt Q6P926)
T3 sequence: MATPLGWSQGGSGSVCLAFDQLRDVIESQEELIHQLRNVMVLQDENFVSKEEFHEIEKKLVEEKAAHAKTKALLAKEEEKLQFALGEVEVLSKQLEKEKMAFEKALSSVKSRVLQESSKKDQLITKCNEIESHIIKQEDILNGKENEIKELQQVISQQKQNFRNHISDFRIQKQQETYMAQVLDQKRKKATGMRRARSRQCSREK


How the values were obtained:
[1] = target: T1, GST-geminin; test: pull-down; GST fusion bait on Glutathione Sepharose-4B beads, prey endogenous protein of human U2OS whole cell extract; 1 hour at 4°C in binding buffer, Western blot; only the target purified
[2] = target: T2, GST-TIPT2 (TATA-binding protein-like factor-interacting protein, isoform 2) (mouse); test: as above
[3] = target: T3, HA-TIPT2 (mouse); test: co-IP; anti-HA affinity matrix, extracts of U2OS clone stably producing HA-TIPT2 (HA-TIPT8) and of untransfected U2OS cells; 4°C
[4] = target: T2, GST-TIPT2 (TATA-binding protein-like factor-interacting protein, isoform 2) (mouse); test: pull-down; GST fusion bait on Glutathione Sepharose-4B beads, prey in vitro transcribed/translated radioactive protein; 1 hour at 4°C in binding buffer (20 mM Tris pH 7.5, 100 mM NaCl, 1 mM EDTA, 0,1% NP-40), washes up to 150 mM NaCl; only the target purified
[5] = target: T1, GST-geminin; test: as above
[6] = target: T1, GST-geminin; test: pull-down; GST fusion bait on Glutathione Sepharose-4B beads, prey endogenous proteins of adult mouse testis extract; 1 hour at 4°C in binding buffer, Western blot; only the target purified
[7] = target: T2, GST-TIPT2 (TATA-binding protein-like factor-interacting protein, isoform 2) (mouse); test: as above

binding [4] | binding [5] | Molecule | also measured
binds | – | in vitro translated Scmh1 (from UniProt Q8K214 1-706) | –
binds | binds | in vitro translated TBP (TATA box binding protein) (from UniProt P20226 1-339) | –
binds | binds | in vitro translated TBPL1 (protein, UniProt P62380 1-186) MDADSDVALDILITNVVCVFRTRCHLNLRKIALEGANVIYKRDVGKVLMKLRKPRITATIWSSGKIICTGATSEEEAKFGARRLARSLQKLGFQVIFTDFKVVNVLAVCNMPFEIRLPEFTKNNRPHASYEPELHPAVCYRIKSLRATLQIFSTGSITVTGPNVKAVATAVEQIYPFVFESRKEIL | –
binds | – | GST-TIPT2 (TATA-binding protein-like factor-interacting protein, isoform 2) (protein, UniProt Q6P926-1 1-205) MATPLGWSQGGSGSVCLAFDQLRDVIESQEELIHQLRNVMVLQDENFVSKEEFHEIEKKLVEEKAAHAKTKALLAKEEEKLQFALGEVEVLSKQLEKEKMAFEKALSSVKSRVLQESSKKDQLITKCNEIESHIIKQEDILNGKENEIKELQQVISQQKQNFRNHISDFRIQKQQETYMAQVLDQKRKKATGMRRARSRQCSREK | –

More lines, now with the values behind:

Molecule | binding [4] | binding [5] | also measured
endogenous TBP from human U2OS cells (from UniProt P20226 1-339) | – | – | binding [1]: binds; binding [2]: binds; binding [3]: binds
in vitro translated Ring1B (from UniProt Q9CQJ4 1-336) | binds | – | –
in vitro translated TFIIB (from UniProt Q00403 1-316) | binds | no binding | –
in vitro translated Mel18 (protein, UniProt P23798 1-342) MHRTTRIKITELNPHLMCALCGGYFIDATTIVECLHSFCKTCIVRYLETNKYCPMCDVQVHKTRPLLSIRSDKTLQDIVYKLVPGLFKDEMKRRRDFYAAYPLTEVPNGSNEDRGEVLEQEKGALGDDEIVSLSIEFYEGVRDREEKKNLTENGDGDKEKTGVRFLRCPAAMTVMHLAKFLRNKMDVPSKYKVEILYEDEPLKEYYTLMDIAYIYPWRRNGPLPLKYRVQPACKRLTLPTVPTPSEGTNTSGASECESVSDKAPSPATLPATSSSLPSPATPSHGSPSSHGPPATHPTSPTPPSTAAGTTTATNGGTSNCLQTPSSTSRGRKMTVNGAPCPP | no binding | – | –
endogenous TBP from adult mouse testis extract (protein, UniProt P29037 1-316) MDQNNSLPPYAQGLASPQGAMTPGIPIFSPMMPYGTGLTPQPIQNTNSLSILEEQQRQQQQQQQQQQQQQAVATAAASVQQSTSQQPTQGASGQTPQLFHSQTLTTAPLPGTTPLYPSPMTPMTPITPATPASESSGIVPQLQNIVSTVNLGCKLDLKTIALRARNAEYNPKRFAAVIMRIREPRTTALIFSSGKMVCTGAKSEEQSRLAARKYARVVQKLGFPAKFLDFKIQNMVGSCDVKFPIRLEGLVLTHQQFSSYEPELFPGLIYRMIKPRIVLLIFVSGKVVLTGAKVRAEIYEAFENIYPILKGFRKTT | – | – | binding [6]: binds; binding [7]: binds
in vitro translated Mph2 (protein, UniProt Q9QWH1 1-850) MENELPVPHTSNRASVTTNTSGTNSSSGCISSSGGGGGSGGRPTAPQISVYSGIPDRQTVQVIQQALHRQPSTAAQYLQQMYAAQQQHLMLQTAALQQQHLSSAQLQSLAAVQQASLVANRQGSTPGSSVSSQAPAQSSSLNLAASPAAAQLINRAQSVNSAAASGLAQQAVLLGNTSSPALTASQAQMYLRAQMLIFTPTATVATVQPELCTGSPARPPTPAQVQNLTLRTQQTPAAAASGPPPTQPVLPSLALKPTPSSSQPLPAPPQGRTMAQGSPAGAKPSGTDNAPETLKAGDGNCNMEGRPGPGRAVPAVATHPLIAPAYAHLQSHQLLPQPPAKHPQPQFVAQQQPQPPRPAPQVQSQPQLASVSPSLALQSSPEDHALPLGSVTQALPLQCSTTHVHKPGNSQQCHLPTLDTGSQNGHPEGGSHPPQRRFQHTSAVILQVQPASPVTPQQCAPDDWKEVVPAEKSVPVARPGPSPHQQAIIPAIPGGLPGPKSPNIQQCPAHETGQGIVHALTDLSSPGMTSGNGNSASSIAGTAPQNGENKPPQAIVKPQILTHVIEGFVIQEGAEPFPVGRSSLLVGNLKKKYAQGFLPEKPPQQDHTTTTDSEMEEPYLQESKEEGTPLKLKCELCGRVDFAYKFKRSKRFCSMACAKRYNVGCTKRVGLFHSDRSKLQKAGTTTHNRRRASKASLPTLTKDTKKQPSGTVPLSVTAALQLAHSQEDSSRCSDNSSYEEPLSPISASSSTSRRRQGQRDLDLPDMHMRDLVGVGHHFLPSEPTKWNVEDVYEFIRSLPGCQEIAEEFRAQEIDGQALLLLKEDHLMSAMNIKLGPALKIYARISMLKDS | binds | – | –
